We go through 60 compounds from ChEMBL document CHEMBL1201862, “PubChem BioAssay data set” (2004).

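How tested: cells in 96-well plates exposed to compound for 48 hours at five concentrations. GI50 marks 50% less growth.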 The source made the active and inactive calls. Rule as the data show it: active = GI50 up to about 1.1 µM and inactive = higher.

The assay relates to NCI-H322M. Description: inhibition of tumour cell growth, NCI panel, 48 h.
On to `CC1(C)CC(Nc2ccc(Nc3ccccc3)cc2)CC(C)(C)N1`, for which the GI50 was inactive: 66.7 µM. For `O=C(O)c1c2c(c(O)c3c1CN(C1CCCCC1)CO3)OCN(C1CCCCC1)C2` the value was inactive: > 100 µM. Take `CCOC(=O)/C=C(\C)Sc1cc(O)c2ccccc2c1O`: the GI50 was inactive: 17.7 µM. For `COc1ccc(O)c(/C=N/CCC/N=C/c2cc(OC)ccc2O)c1` the value was inactive: 17.8 µM; for `O=C1Cc2ccccc2N1/N=C\c1ccc(O)cc1`, inactive: > 10 µM. In the case of `NCCCNCCCNCCCN`, the GI50 is inactive: > 100 µM. Consider `N#Cc1c(Cl)c2cc([N+](=O)[O-])ccc2n2c1nc1ccccc12`, for which the GI50 is inactive: 13.5 µM. For `CSc1nc(=O)c(C#N)c(-c2ccccc2)n1C1OC(COC(C)=O)C(OC(C)=O)C(OC(C)=O)C1OC(C)=O` (stereo not given), the GI50 was inactive: > 100 µM. For `O=C1C=C(Nc2ccccc2C(=O)CC(=O)C(=O)Nc2cccc(C(F)(F)F)c2)c2ccccc2C1=O` the value was inactive: 46.3 µM; for `CCC(C=O)P1(=O)OC(C)(C)CN1C(C)(C)C` (stereo not given), inactive: > 100 µM; for `FC(F)(F)c1cc(C2SCc3nc4ccccc4n32)cc(C(F)(F)F)c1` (stereo not given), inactive: > 100 µM. On to `c1ccc(C[n+]2cccc(-c3cc4ccccc4[nH]3)c2)cc1`, for which the GI50 is inactive: 42 µM. For `O=c1cccc(C2CC(CO)C3CCCCN3C2)[nH]1` (stereo not given) the value was inactive: > 100 µM; for `O=C(/C=C/c1ccccc1)Nc1ccccc1SCCCCl`, inactive: 12.1 µM; for `CC1(C)C(=O)N(CCCCCCN2C(=O)C(C)(C)c3ccccc32)c2ccccc21`, inactive: > 100 µM. For `CC(C)c1cccc(C(C)C)c1NC(=O)C(=O)C1SC(=S)NC1=O` (stereo not given) the value was inactive: > 100 µM; for `CS(=O)(=O)c1ccc(C(=O)O[C@@H]2C(=O)N3CC[C@H]4OC(O)[C@@H]2[C@H]43)cc1` (stereo not given in full), inactive: > 100 µM; for `COc1ccc(NC(=S)NC(=O)c2ccc3c(c2)Sc2ccccc2O3)c([N+](=O)[O-])c1`, inactive: 30.3 µM. For `CC(C)(Oc1ccc2c(=O)cc(-c3ccc(Cl)cc3)oc2c1)C(=O)Nc1c(Cl)cccc1Cl` the value was inactive: > 100 µM; for `C=C[C@@H](OCOCC[Si](C)(C)C)[C@@H](CC)OC(CCCOC(=O)C(C)(C)C)OC` (stereo not given in full), inactive: 82.4 µM.

Regarding `NCCCCCNOCCCN`, the GI50 was inactive: > 100 µM. For `COC(=O)c1c(O)ccc2c1c1c(n2Cc2cccc(C)c2)C(=O)c2ccccc2C1` the value was inactive: 15.5 µM; for `O=C(O)CSc1nnc(-c2ccccc2)[nH]1`, inactive: > 100 µM; for `O=c1[nH]c2nc3ccccc3c(=O)n2/c1=C/c1cccs1`, inactive: > 100 µM. For `C[C@]12CCC(=O)C=C1CC[C@@H]1C2CC[C@]2(C)c3nn(-c4ccccc4)nc3CC12` (stereo not given in full) the value was inactive: > 100 µM; for `COc1ccc2c(c1)C(N)CC2=O` (stereo not given), inactive: > 100 µM; for `COC(=O)C1=C(C(=O)OC)c2cc(OC)ccc2C(C(=S)N(C)C)S1` (stereo not given), inactive: > 100 µM. For `COc1cc2cc(C(=O)N3CC(CCl)c4ccc([N+](C)(C)Cc5ccc([N+](=O)[O-])cc5)cc43)[nH]c2c(OC)c1OC` (stereo not given) the value was inactive: 4.88 µM; for `COC(=O)Cc1c(-c2c(CC(=O)OC)c3ccccc3n2C2OC(COC3OC(COC(C)=O)C(OC(C)=O)C(OC(C)=O)C3OC(C)=O)C(O)C(O)C2O)[nH]c2ccccc12` (stereo not given), inactive: > 100 µM. As to `CCOc1ccccc1NC(=O)C(=O)CC(=O)C1=C(C)Nc2ccccc2S1`, the GI50 is inactive: > 100 µM. As for `COC(=O)[C@H]1CC(=O)C=C2CCCC21` (stereo not given in full), the GI50 was inactive: > 100 µM. For `Nc1nc(-c2ccccc2)cc(-c2ccc(OCc3ccccc3)cc2O)n1` the value was inactive: 53 µM.

Consider `N#CSCc1cccc(Nc2cc(=O)[nH]c(=O)[nH]2)c1`, for which the GI50 was inactive: 49.3 µM. For `Cc1ccc(C(=O)O/N=C2/CCCCC2CN(C)C)cc1` (stereo not given) the value was inactive: > 100 µM; for `N#Cc1c(NN)nc(NN)c(C#N)c1-c1ccccc1`, inactive: > 100 µM.

On to `Cc1c(C(=O)/C=C/c2ccccc2O)c(=O)n(-c2ccccc2)n1C`, for which the GI50 is inactive: 22 µM. For `COc1cc(C2c3cc4c(c(O)c3C(=O)C3CCC(=O)N32)OCO4)cc(OC)c1OC` (stereo not given), the GI50 is inactive: > 100 µM. For `COc1cc(Br)c(/C=N\c2cccc3ccc(OS(=O)(=O)c4ccc([N+](=O)[O-])cc4)cc23)cc1OC` the value was inactive: > 100 µM; for `CC(=O)c1ccc(-c2oc(-c3ccccc3)cc2-c2ccc3c(c2)OCO3)s1`, inactive: > 100 µM. For `Cc1nnc(N)nc1/C=C\c1cccs1` the value was inactive: 23.5 µM; for `O=C(O)c1ccc(Nc2nc3nn(Cc4ccccc4)cc3c(=O)s2)cc1`, inactive: > 100 µM. For `[O-][S+](c1ccccc1)C1CC2CC3(CCC21O)OCCO3` (stereo not given) the value was inactive: > 100 µM. Take `CCOC(=O)c1cc(=O)oc2c1N(C)c1ncccc1N2`: the GI50 was inactive: > 100 µM.

For `CN1CCN(Cn2nc(-c3ccccc3)n(/N=C/c3ccc(-c4ccc(Cl)cc4Cl)o3)c2=S)CC1`, the GI50 was inactive: 13.1 µM. For `O=C(Nc1nc(C23CC4CC(CC(C4)C2)C3)cs1)c1cc2cc([N+](=O)[O-])ccc2oc1=O` the value was inactive: > 100 µM; for `CC1=NN(C(=O)c2ccncc2)C(=O)C1`, inactive: > 100 µM; for `COc1ccc(C=O)c([N+](=O)[O-])c1`, inactive: 48.5 µM. For `CNC(N)NC` the value was inactive: > 100 µM; for `CC(C)COC(=O)N1N=NC2C3OC(CC3=O)C21` (stereo not given), inactive: > 100 µM; for `COc1cc(C(=O)C(CO)Oc2ccccc2OC)ccc1O` (stereo not given), inactive: > 100 µM. For `O=C1OC(c2ccccc2)=NC1c1ccccc1` (stereo not given) the value was inactive: > 100 µM. As to `Clc1ccc(Cl)c(/N=N/c2cc3c4c(c2)CCCN4CCC3)c1`, the GI50 is inactive: > 10 µM. For `NCCCCNCCCNC(=O)CNC(=O)CC(O)C(N)CCCC(NC(=O)C(CN)NC(=O)C(O)CNC(=O)CC(N)c1ccc(O)cc1)C(=O)O` (stereo not given) the value was inactive: 4.2 µM; for `O=C1c2cccc3cccc(c23)C(=O)N1CCN(CCO)CCO`, inactive: 26.9 µM; for `C=CCN(c1cc(OC)c2[nH]cc(C)c2c1[N+](=O)[O-])S(C)(=O)=O`, inactive: > 100 µM. Turning to `COc1c(Cl)cc(S(=O)O)cc1Cl`, the GI50 is inactive: > 100 µM. For `CC12O[C@]3([C@H](C(=O)N4CCOC43C)[C@H]1Cl)[C@H]1O[C@H]12` (stereo not given in full) the value was inactive: > 100 µM; for `CO[C@H]1CC[C@]2(C)C3=CC[C@@]4(C)C(CC[C@@H]4C(C)CC[C@@H](C)C(C)C)C(=CCC2C1)O3` (stereo not given in full), inactive: > 25 µM; for `COC1C(O)=C2C(=O)O/C(C)=C/C=C/C=C/C=C\CC(c3ccccc3)NC(=O)\C=C/C=C\C=C\C=C\[C@@]2(C)[C@@H]1O` (stereo not given in full), active: 0.0776 µM. As to `Nc1ccc(-c2nc3cc(F)ccc3s2)cc1I`, the GI50 is inactive: 9.59 µM.
